Data taken from publication PMC7819943, “Rice protein-binding microarrays: a tool to detect cis-acting elements near promoter regions in rice”.
This is one part of the list.

What follows are sequences tested against T1, OsWOX13 (Oryza sativa, UniProt Q5QMM3 1-267) (assay: protein-binding microarray (RPBM); PBS, 2% BSA, 51.3 ng/ul salmon testes DNA, 50 uM zinc acetate, 200 nM TF, 25 C, 1 h; high values mean tight binding). Details: protein: recombinant; tags: N-terminal polyhistidine and DsRed monomer fusion (pET32a); label: CyDye5-dUTP incorporated in the synthesized complementary strand; 3' TTTTT single-stranded linker to array surface; dsDNA, one strand shown.
T1 sequence: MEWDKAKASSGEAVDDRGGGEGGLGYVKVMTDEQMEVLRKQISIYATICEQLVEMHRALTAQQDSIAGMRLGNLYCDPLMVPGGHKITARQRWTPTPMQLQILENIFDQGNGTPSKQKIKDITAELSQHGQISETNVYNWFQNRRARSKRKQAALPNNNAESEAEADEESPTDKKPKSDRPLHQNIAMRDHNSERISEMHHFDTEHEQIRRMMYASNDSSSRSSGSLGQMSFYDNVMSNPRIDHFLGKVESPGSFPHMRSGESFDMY
Method in brief: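 An Axon 4000B scanner gave the binding signal as per-feature fluorescence intensity in arbitrary units. This followed washing of a custom Agilent array that had been incubated for 1 h at 25 °C with 200 nM protein in PBS, 2% BSA, salmon testes DNA and 50 µM zinc acetate. The proteins were transcription factors fused at the N-terminus to polyhistidine and DsRed, expressed in E. coli BL21-CodonPlus and purified on Ni–NTA.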

Sequence | binding signal
GACGAATATATTATACCTAATTACTCTTCTATTATTTGATCGGAGTCACCTAGTGCAG | 3590 fluorescence intensity (a.u.)
CATGATTAATTTTAGGCCGGTCATTGCTCGTGTCCTTGTTCGGAGTCACCTAGTGCAG | 65300 fluorescence intensity (a.u.)
AATTAATCCATTATTAACAAATGTTTACTGTAGCATCACACGGAGTCACCTAGTGCAG | 5300 fluorescence intensity (a.u.)
CCCCTACCAGATGATTTGTCTTGCTTTGTATTAATGGGTGCGGAGTCACCTAGTGCAG | 4790 fluorescence intensity (a.u.)
CTAACCGTCCATTGATTAGCTAGCTAACTTAGAGATAGATCGGAGTCACCTAGTGCAG | 34100 fluorescence intensity (a.u.)
TGAAAGCATGATCTAGATAATTTATGTGCTACACAATTTGCGGAGTCACCTAGTGCAG | 3300 fluorescence intensity (a.u.)
GGTAAGATTTGTCAGCTTAATTTGTCTATCTGCATATTAGCGGAGTCACCTAGTGCAG | 16200 fluorescence intensity (a.u.)
GAAAACATACAAATTAACTCAAGAAATGGCCAAATTAAAGCGGAGTCACCTAGTGCAG | 10700 fluorescence intensity (a.u.)
AAGCAAATGATAATTATTGCAAGTTCCTAACAAAATATTGCGGAGTCACCTAGTGCAG | 5850 fluorescence intensity (a.u.)
ATGATAGATTTAGATGAAGTTTAACTTGGAATAGCCATACCGGAGTCACCTAGTGCAG | 44200 fluorescence intensity (a.u.)
ATGTAAGATGGTAATAGTAGATTGAAGATGCACCACAATGCGGAGTCACCTAGTGCAG | 4350 fluorescence intensity (a.u.)
TTGCGCAAATTAATCTTTCTAGAAATCAAAGGGCTCAGGGCGGAGTCACCTAGTGCAG | 4600 fluorescence intensity (a.u.)
TTAAATTTGTAGTTTTGTGATGTCAAAATACATGTAATTTCGGAGTCACCTAGTGCAG | 16900 fluorescence intensity (a.u.)
CAATAGATTTGGTCTAAATTTAGTTAAAATTTATCGAAAACGGAGTCACCTAGTGCAG | 11400 fluorescence intensity (a.u.)
ACTAATTAGAAGTACTAAATAGAGACTAATGATAAAACCCCGGAGTCACCTAGTGCAG | 36100 fluorescence intensity (a.u.)
CCAATTAGATGAGTTAGGTAAGTGATAAAGCATTCGTAACCGGAGTCACCTAGTGCAG | 3220 fluorescence intensity (a.u.)
GTACTAATTATGTACTCAGGTTTGGAAGTAGAGTCTACGTCGGAGTCACCTAGTGCAG | 26000 fluorescence intensity (a.u.)
TGAAAATTTATAGAGGACAAATGGGTGGACATATATAGGGCGGAGTCACCTAGTGCAG | 3270 fluorescence intensity (a.u.)
AACACACTCAGTTAAATTGGCACTATTTTATCAGCTCATTCGGAGTCACCTAGTGCAG | 3850 fluorescence intensity (a.u.)
GTTGATTATAGATGATTTCAAGCCAACAGTTGGCTATAGGCGGAGTCACCTAGTGCAG | 35100 fluorescence intensity (a.u.)
TTTTATGATTAGTATTTTCATTGTTGTTAAATGATAAAACCGGAGTCACCTAGTGCAG | 23800 fluorescence intensity (a.u.)

Sequence | binding signal
GTAGATGATTAATTTAGAATGGAGGGAGTAGAAGCTAAGACGGAGTCACCTAGTGCAG | 24300 fluorescence intensity (a.u.)
TGCTCCAACGTAATTTGTTCCAAGTGTCTCTGCTCTTCAGCGGAGTCACCTAGTGCAG | 3150 fluorescence intensity (a.u.)
CCCGTCCCTAATTAACCGCCGTTCCTCTCGCGCCTCACCACGGAGTCACCTAGTGCAG | 12500 fluorescence intensity (a.u.)
GTTGAGGAATTGATTATAAACGTAGAGGAATAACAATGGACGGAGTCACCTAGTGCAG | 13800 fluorescence intensity (a.u.)
TTTAAAATTAGATAAATTTTAGCTGCGGCTGACAACACGACGGAGTCACCTAGTGCAG | 9360 fluorescence intensity (a.u.)
AGACAGATTGGGATGAATCAAATGTCCAGCCTACGTGGACCGGAGTCACCTAGTGCAG | 16200 fluorescence intensity (a.u.)
TTCCATACTTAAATTTAATGCTACTTATCTCACATGAAGTCGGAGTCACCTAGTGCAG | 4110 fluorescence intensity (a.u.)
TTCCAAGACAATTGACATCAGGACACAAGCAGGTAGTTAACGGAGTCACCTAGTGCAG | 3690 fluorescence intensity (a.u.)
ATTAAATACATTTAATTATGCCCTTGTACATATTCTCCGCCGGAGTCACCTAGTGCAG | 19600 fluorescence intensity (a.u.)
CAAAGTTTATAAATGATTGGATTATATGGTGTCTTTTGGACGGAGTCACCTAGTGCAG | 27400 fluorescence intensity (a.u.)
ACTAATTGGACAGTTTGCATATAAATCGCGAGACGGATCTCGGAGTCACCTAGTGCAG | 39200 fluorescence intensity (a.u.)
ACAAATTGTTTACGTGCGTCAGGCCGCCGCTGTGATGACACGGAGTCACCTAGTGCAG | 6260 fluorescence intensity (a.u.)
ATGCAATCAAAGGATTTAATTAGAGATGATGCTACAGATCCGGAGTCACCTAGTGCAG | 21300 fluorescence intensity (a.u.)
CATACATCAATCAGTTCTTGATTTGACCGGCATTGTATTGCGGAGTCACCTAGTGCAG | 51200 fluorescence intensity (a.u.)
ATTAATTAGCTCTAGATTAAGCTAATTGCCATCAATGGCTCGGAGTCACCTAGTGCAG | 46400 fluorescence intensity (a.u.)
TATATGGTTATGATTATGTCACGGCTGTTGCCTGACGGGCCGGAGTCACCTAGTGCAG | 3520 fluorescence intensity (a.u.)
GTCTCGTAATTTTCTGTTGAACTATGTAATTGATTTCTTTCGGAGTCACCTAGTGCAG | 10500 fluorescence intensity (a.u.)
AATTAATTTCGGAAAAGGAGAATGAAGTTTGAGAGTGACACGGAGTCACCTAGTGCAG | 3290 fluorescence intensity (a.u.)
ATTAATACTAATTTGTTTCCTTCAACAACTACTGATCGATCGGAGTCACCTAGTGCAG | 13900 fluorescence intensity (a.u.)
TTTGCTAGATTGGAGCAAATCGCATATTCTTAACCCCACCCGGAGTCACCTAGTGCAG | 21600 fluorescence intensity (a.u.)
TTGTGATTTGTGGGATTAGTATCTCTGTCGGTGTCATATCCGGAGTCACCTAGTGCAG | 39600 fluorescence intensity (a.u.)

Sequence | binding signal
CATAATTAGTATACTATGACACCGATACCGATAGCTAGACCGGAGTCACCTAGTGCAG | 29500 fluorescence intensity (a.u.)
AGCATCATTGACGTGATTACCGTCCGGTGACTGACGTACGCGGAGTCACCTAGTGCAG | 24200 fluorescence intensity (a.u.)
CCCATCCAATTAACTACAAGACCCCAGTTCATCCAGTGGACGGAGTCACCTAGTGCAG | 14000 fluorescence intensity (a.u.)
GATTTGATTGGTCATTCTGTGCAAAACTGTCCGCGAATGGCGGAGTCACCTAGTGCAG | 44100 fluorescence intensity (a.u.)
TGGGAATAGAAAATGATAATCATATTTGTATATGGATCTCCGGAGTCACCTAGTGCAG | 3640 fluorescence intensity (a.u.)
CTTGATAGGTATCGACACTACGAGAGTTTACTACTGAATTCGGAGTCACCTAGTGCAG | 24500 fluorescence intensity (a.u.)
ACAAAGAGATTGAACCTAAACCAATCAGAATAGACAACATCGGAGTCACCTAGTGCAG | 11500 fluorescence intensity (a.u.)
TCTGATATGATTTTATATAGTGGGCTTGTTGCCTGACTGTCGGAGTCACCTAGTGCAG | 31500 fluorescence intensity (a.u.)
ATATACTTATAATCAAATCAATAATCCGTGATGGTAATTCCGGAGTCACCTAGTGCAG | 12500 fluorescence intensity (a.u.)
ACACTACAGATGCTGACTTGATTGCGACCAAACATCACGACGGAGTCACCTAGTGCAG | 8290 fluorescence intensity (a.u.)
CATAATTTTAATTTTAATTTTAATTTTATAAAATTTCAGTCGGAGTCACCTAGTGCAG | 42300 fluorescence intensity (a.u.)
CAATTGTACAAAGCACCTTAATTGATAACGAGCGCACAACCGGAGTCACCTAGTGCAG | 7020 fluorescence intensity (a.u.)
AAACAAATGATTTTATTCATTTACTCATTCATCATATCACCGGAGTCACCTAGTGCAG | 10300 fluorescence intensity (a.u.)
CTAATATTTAACTAATTATGTGCTAATGAATCTTCTCATTCGGAGTCACCTAGTGCAG | 13400 fluorescence intensity (a.u.)
TATAACATATTATGTAGCTTAATTTACCGTAGCAACCGGCCGGAGTCACCTAGTGCAG | 4090 fluorescence intensity (a.u.)
TATCAGATTGAATTTACCCTGCTACACAGTTGCCTTTACTCGGAGTCACCTAGTGCAG | 17400 fluorescence intensity (a.u.)
ACCCAAAATTAACTCTAAACTTAAGTTTCAAAATCTAAATCGGAGTCACCTAGTGCAG | 7640 fluorescence intensity (a.u.)
CAAATTTGACCGCCAACGCAACCAATCAGTTGCACAGTTACGGAGTCACCTAGTGCAG | 7360 fluorescence intensity (a.u.)
CAATTCAATCTAAATCTGTCTATACTATTTTAAATATTAACGGAGTCACCTAGTGCAG | 5960 fluorescence intensity (a.u.)
GTTAGTTAATTACTCCAATTAATTGACGCGTCCGTGCGTGCGGAGTCACCTAGTGCAG | 42800 fluorescence intensity (a.u.)
AAACTCAATCAATCATACGTTATTTGGCCTGGTTTAGTTCCGGAGTCACCTAGTGCAG | 40000 fluorescence intensity (a.u.)

Sequence | binding signal
GCAGTAATGGACCATTTAGCCGAATGCCAACGCCGAACTACGGAGTCACCTAGTGCAG | 3840 fluorescence intensity (a.u.)
ATCAAATCATTATTCAGACTTGACCTGGTACACAACACAACGGAGTCACCTAGTGCAG | 3330 fluorescence intensity (a.u.)
GGAATTTACAACTAATTGAACATGCTAACATTTGACATATCGGAGTCACCTAGTGCAG | 21500 fluorescence intensity (a.u.)
GAAATTGATTTCCATTATCAATACCAGCTAAATATATTCTCGGAGTCACCTAGTGCAG | 38100 fluorescence intensity (a.u.)
TGAAATTTCTACTGTCATGCTTCCTTGTCCCATTACAACACGGAGTCACCTAGTGCAG | 3640 fluorescence intensity (a.u.)
AAAACTAATTACACAGTTTGCATAGAAATTGCGAGACGAACGGAGTCACCTAGTGCAG | 26100 fluorescence intensity (a.u.)
ATCAAGTTTAAATTTTGATTATAAGCAAAATTGATGGCCCCGGAGTCACCTAGTGCAG | 15100 fluorescence intensity (a.u.)
GGATAATGAATGTTTTATTGTCCATAGTCTTTGCGCTTTTCGGAGTCACCTAGTGCAG | 5600 fluorescence intensity (a.u.)
AAGATTGAGCGTTGGGCAATTGTTAATTTCTCTGCTCGGTCGGAGTCACCTAGTGCAG | 11900 fluorescence intensity (a.u.)
GTAAAATTAAATGATATAAATTATGATAAGTCGAAAAGAACGGAGTCACCTAGTGCAG | 20200 fluorescence intensity (a.u.)
AAAATCACCTACAAATTTACATCACAAAATTATCCCCAAACGGAGTCACCTAGTGCAG | 5310 fluorescence intensity (a.u.)
GTGACTGAATTGGCATCCATATCGCTTCTCGCTGCTCATCCGGAGTCACCTAGTGCAG | 10400 fluorescence intensity (a.u.)
GTTTAATATTTATAATTAATTTTCAAACATCCGATGTGATCGGAGTCACCTAGTGCAG | 19000 fluorescence intensity (a.u.)
GTAATTGAGAAAGTAAATACCAATATACTCCCTCCGGTTACGGAGTCACCTAGTGCAG | 11000 fluorescence intensity (a.u.)
GTAGAATTATATTACAATTATACTATAAGTTATGGTTACCCGGAGTCACCTAGTGCAG | 5770 fluorescence intensity (a.u.)
TATGACTAATTAACTACACCTCTTCTTCCACTATAAGTACCGGAGTCACCTAGTGCAG | 25100 fluorescence intensity (a.u.)
GAGATTGACAGTTCAAAGGAAATCAGAGGTGAGTGATTCTCGGAGTCACCTAGTGCAG | 16100 fluorescence intensity (a.u.)
TTGGAGGGGATATGATTTCTGTTATACTGTATCAGATTATCGGAGTCACCTAGTGCAG | 3230 fluorescence intensity (a.u.)
TATAATTAAATCTTTACAACAAGATATTGCATGATTATATCGGAGTCACCTAGTGCAG | 10800 fluorescence intensity (a.u.)
GATGATGATGAGGAGGATGACCAGGATGGTGGAGACTGGGCGGAGTCACCTAGTGCAG | 4950 fluorescence intensity (a.u.)
CTCATAGACTGATCTTGGGTTCAATACAAAAGGCCCATGTCGGAGTCACCTAGTGCAG | 4770 fluorescence intensity (a.u.)
